Reference: the RNAGym collection of RNA variant scans (doi:10.1093/nar/gkz1192)
Read counts are not given, so values of variants with three or more changes are uncertain.

B1: CPEB3 Ribozyme (parent)
chain: UAACAGGGGGCCACAGCAGAAGCGUUCACGUCGCAGCCCCUGUCAGAUUCUGGUGAAUCUGCGAAUUCUGCUGUAUAUCUC

Variants of: B1
Experiment: self-cleavage, relative activity (ratio to wild type); higher = more cleavage; in vitro, sequencing
How it was run: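 After error-prone PCR and barcoding, CPEB3 ribozyme mutant libraries were transcribed with T7 RNA polymerase at 37°C for 5 hours, then given 15 min with DNase I before an EDTA stop, and they cleaved during both steps. Reverse transcription with template switching preceded Illumina sequencing. Relative activity divides a variant's cleaved/total read fraction by the unmutated ribozyme's. At least 5 reads were required per variant, and three batches were averaged.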

Variant | self-cleavage
UAACAGGUGGCUACAGCAGAAGCGUUCACGUCGCAGCCCCUGUCAGGUUCAGGUGAAUCUGCGAAUUCUGCUGUAUAUCUC [G8U C12U A47G U51A] | 0.45
UAACAGGUGGCCACAGCAGAAGCGUUGACGUCGCAGCCCCUGUCAGAUUCUGGUGAAUCUGCGAAUCCUGCAGUAUAUCUC [G8U C27G U67C U72A] | 0.08
UAACAGGUGGCCACAGCAGAAGCGUUCACGUCGCAGCCCUAGUCAGGUACUGGUGAAUCUGCGAAUUCUGCUGUAUAUCUC [G8U C40U U41A A47G U49A] | 0.07
UAACAGGUAGCCUCAGCAGAAGCGUUCACGUCGCAGCCCCUGUCUGAUUCUGGUGAGUCUGCGAAUUCUGCUGUAUAUCUC [G8U G9A A13U A45U A57G] | 0.09
UAACAGGUAGCCACAGCAGAAGCGUUCACGUCGCAGCCCCUGUCAGAUCCUGGUGAGUCUGCGAAUUCUGCUGUAUAUCCC [G8U G9A U49C A57G U80C] | 0.06
UAACAGGUUGCCACAGCAGAAGCGUACACGUCGCAGCCCCCGUCAGAUCCUGGUGAAUCUGCGAAUUCUGCUGUAUAUCUC [G8U G9U U26A U41C U49C] | 0.17
UAACAGGUGGCCACAGCAAGAGCGUUCACGUCGCAGCCCCCGUCAGAUUCUGGUGAAUCCGCGAAUUCUGCUGUAUAUCUC [G8U G19A A20G U41C U60C] | 0.11
UAACAGGUGGCCACAGCAUAAGCGUUCACGUCGCAGCCCCUGUCAGAUUCAGGUGAAUCUGCGAAUUCCGCUGUAUAUCUC [G8U G19U U51A U69C] | 0.03
UAACAGGUGGCCACAGCAGAAGCGUUCACGUCACAGCACCUGUCAGGUUCUGGUGAAUCUGCAAAUUCUGCUGUAUAUCUC [G8U G33A C38A A47G G63A] | 0.12
UAACAGGUGGCCACAGCAGAAGCGACCACGUCGCAGCCCCUGUCAGAUUCCGGUGAAUCUGCGAAUUCCGCUGUAUAUCUC [G8U U25A U26C U51C U69C] | 0.13
UAACAGGUGGCCACAGCAGAAGCGCUUACGUCGCACCCCUUGACAGAUUCUGGUGAGUCUGCGAAUUCUGCUGUAUAUCUC [G8U U25C C27U G36C C40U U43A A57G] | 0.13
UAACAGGUGGCCACAGCAGAAGCGUACACGUCGCAACCCCUGUCAGAAUCUGGUGAAUCUGUGGAUUCUGCUGUAUAUCUC [G8U U26A G36A U48A C62U A64G] | 0
UAACAGGUGGCCACAGCAGAAGCGUCCGCGUCGCAGCCCCUGUCAGAUUCUGGUGAAUCUGCGAAUUCUGCUGUAUAUCUC [G8U U26C A28G] | 0.1
UAACAGGUGGCCACAGCAGAAGCGUCCACGUCGCGGCCCCUGUCAGAUUCUGGUGAAUCUGCGAAUUCUGCUGCAUAUCCC [G8U U26C A35G U74C U80C] | 0.08
UAACAGGUGGCCACAGCAGAAGCGUUCACGACGCGGCCCCUGUCAGAUUCAGGUGAAUCUGCGAAUUCUGCUGUAUAACCC [G8U U31A A35G U51A U78A U80C] | 0.05
UAACAGGUGGCCACAGCAGAAGCGUUCACGACGCAGCCCCUGUCAGAUUCCGGUGAACCUUCGAAUUCAGCUGUAUAUCUC [G8U U31A U51C U58C G61U U69A] | 0.04
UAACAGGUGGCCACAGCAGAAGCGUUCACGUCGCAGCCCCUGGCUGAUUCUGGUGAAUCCGCGAAUUCUGCUGUAUAUCUC [G8U U43G A45U U60C] | 0.09

Variant | self-cleavage
UAACAGGUGGCCACAGCAGAAGCGUUCACGUCGCAGCCCCUGUCAGAUCCAGGUGAAUCUGCGAAUUCUGCUGUAUAGCUC [G8U U49C U51A U78G] | 0.08
UAACAGGUGGCCACAGCAGAAGCGUUCACGUCGCAGCCCCUGUCAGAUUCUGGCGAAUCUGCGAAUUCUGCUGUAAAUCUC [G8U U54C U76A] | 0.35
UAACAGGUGGCCACAGCAGAAGCGUUCACGUCGCAGCCCCUGUCAGAUUCUGGUGAAUCUGCGAAUCCUGCAGUAUAUCUC [G8U U67C U72A] | 0.1
UAACAGGUGGCCACAGCAGAAGCGUUCACGUCGCAGCCCCUGUCAGAUUCUGGUGAAUCUGCGAAUUCUGCAGUAUAACUC [G8U U72A U78A] | 0.05
UAACAGGGAGCCGCAGCGGAAGCGUUCACGUCGCAGCCCCUGUCAGAUUCUGGUGAAUCUGCGAACUCUGCUGUACACCUC [G9A A13G A18G U66C U76C U78C] | 0.07
UAACAGGGAGCCGCAGCAGUAGCGUUCACGUCGCAGCCCCUGUCAGUUUCUGGUGAAUCCGCGAAUUCUGCUGUAUAUCUC [G9A A13G A20U A47U U60C] | 0.31
UAACAGGGAGCCGCAGCAGAAGCGUUCACGUCGCAGCCCCUGUCAGAUUCUGGUGAAUCUGCGGAUUCUGCUGUAUAUCUC [G9A A13G A64G] | 0.07
UAACAGGGAGCCGCAGCAGAAGCGUUCACGCCACAGUCCCUGUCAGAUUCUGGUGAAUCUGCGAAUUCUGCUGAAUAUCUC [G9A A13G U31C G33A C37U U74A] | 0.07
UAACAGGGAGCCACGGCUGAAGCGUUCACGUCGCAGCCCCUGUCCGAUUCUGGUGAAUCUGCGAAUCCUGCAGAAUAUCUC [G9A A15G A18U A45C U67C U72A U74A] | 0.03
UAACAGGGAGCCACGGCAGAGGCGUUCACGUCGCAGCCCCUGUCAGAUUCCGGUGAUUCUGCGAAUUCUGCUGUAUAUCUC [G9A A15G A21G U51C A57U] | 0.05
UAACAGGGAGCCACGGCAGAAGCGUUCACGUCGCAGCCCCUGUCAGAUUCUGCUGAAUCUGCGAAUUCUGCUGUAUAUCCC [G9A A15G G53C U80C] | 0.38
UAACAGGGAGCCACGGCAGAAGCGUUCACGUCGCAGCCCCUGUCAGAUUCUGGCGAAUCAGCGAAUUCUGCUGUAUAUCUC [G9A A15G U54C U60A] | 0.08
UAACAGGGAGCCACUGCAGAAGCGUUCACGUCGCUGCCCCUGUCAGAUUCUGGUGAAUCUGCGAGUUCUGCUGUAUAUCUC [G9A A15U A35U A65G] | 0.05
UAACAGGGAGCCACUGCAGAAGCGUCCACGUCGCAGCGCCUGUCAUAUUCUGGUGAAUCUGCGAAUUCUGCUGUAUAUCGC [G9A A15U U26C C38G G46U U80G] | 0.03
UAACAGGGAGCCACUGCAGAAGCGUUCACGUCGCAGCCCCCGUCAGACUCUGGUGAAUCUGCGAAUUCUGCUGUAUAUCUC [G9A A15U U41C U48C] | 0.08
UAACAGGGAGCCACAGCGGAAGCGUUCUCGUCGCAGCCCCUGUCAGAUUCUGGUGAAUCUGCGAAUUCUGCCGUAUAUCUC [G9A A18G A28U U72C] | 0.16
UAACAGGGAGCCACAGCGGAAGCGUUCACGUCGCAGCCCCAGUCAGAUUCUGGUGAAUCUGCGAAUUCUGCUGUAUAUCUC [G9A A18G U41A] | 0.17
